# Assay results taken from publication PMC9402713, “Structural analysis of Red1 as a conserved scaffold of the RNA-targeting MTREC/PAXT complex” (Nature Communications, 2022).
# Where a chain is given by its changes, count along the chain named. Names may count otherwise. These are yes or no findings as the source states them, for the method shown. For some assays here: In cells and extracts the contact can be indirect. Some entries that bind do so weakly or less than the wild type. Sequences can lack the tags named with a protein.
# B1: Ars2, full length, yeast two-hybrid fusion (protein, UniProt O94326 1-609)
# chain: MSEVHQESEVEYSRWKRERSPERSQRRSQSPPGEQSAYHRERSPLRKRGNYYDDRTRASGPYPTFTKPLIDPYTQTNAVSYERFIRWYSKENHISATTEDLYNSLHGTYNNYKQDLYARTARSFVESHCDEAWFEDSYWVDESQGRVLEVSENEKSYRRALYDKFMDRLDAGYYDDFQLPTAEDVIEKPSIPDNDTDDSILPSNDPQLSKWNQDSRNDAMENTLLVSHVLPNISVAQIHNALDGISFVQHFSLSTINLIKNDERSLWVHFKAGTNMDGAKEAVDGIQLDSNFTIESENPKIPTHTHPIPIFEIASSEQTCKNLLEKLIRFIDRASTKYSLPNDAAQRIEDRLKTHASMKDDDDKPTNFHDIRLSDLYAEYLRQVATFDFWTSKEYESLIALLQDSPAGYSRKKFNPSKEVGQEENIWLSDLENNFACLLEPENVDIKAKGALPVEDFINNELDSVIMKEDEQKYRCHVGTCAKLFLGPEFVRKHINKKHKDWLDHIKKVAICLYGYVLDPCRAMDPKVVSTSYVSLQILNKPYVGFRNINANYTFPTTSYSRRNDEEITSGASSQKSYSRQEPMIHRREFYRTYQDLDAPNQEVPELDY
# B2: His-MBP-Red1 20-40 (domain or fragment, S. pombe)
# chain: KNEEDESNDSDKEDGEISEDD
# notes: Red1, S. pombe, residues 20-40 with the EDGEI motif; vector pETM41; also called MBP-Red1 EDGEI motif-containing peptide; source: E. coli BL21Star (DE3), purified (Ni^2+ chelating Sepharose or amylose resin, Superdex 200)
# B3: Ars2-GFP (protein, UniProt O94326 1-609)
# chain: B1 chain
# B4: His-MBP-Red1 452-524 L481R, I485R (domain or fragment, UniProt Q9UTR8 452-524)
# chain: EAPWLRKTEQIAVVHEEHPAQIKKSEIDIRNNLREKEEGELTKYQTLVKSKTEILTQLYTRKKQLLEQQGKGN
# Tests used:
# [1] = biological target: T1, Red1 E32R, full length, yeast two-hybrid fusion (S. pombe) (UniProt Q9UTR8); experiment: two-hybrid; Gal4 system (pDEST32 bait, pDEST22 prey) in yeast MaV203; HIS3 reporter, growth without histidine with 5-50 mM 3AT, 30 °C
# T1 sequence: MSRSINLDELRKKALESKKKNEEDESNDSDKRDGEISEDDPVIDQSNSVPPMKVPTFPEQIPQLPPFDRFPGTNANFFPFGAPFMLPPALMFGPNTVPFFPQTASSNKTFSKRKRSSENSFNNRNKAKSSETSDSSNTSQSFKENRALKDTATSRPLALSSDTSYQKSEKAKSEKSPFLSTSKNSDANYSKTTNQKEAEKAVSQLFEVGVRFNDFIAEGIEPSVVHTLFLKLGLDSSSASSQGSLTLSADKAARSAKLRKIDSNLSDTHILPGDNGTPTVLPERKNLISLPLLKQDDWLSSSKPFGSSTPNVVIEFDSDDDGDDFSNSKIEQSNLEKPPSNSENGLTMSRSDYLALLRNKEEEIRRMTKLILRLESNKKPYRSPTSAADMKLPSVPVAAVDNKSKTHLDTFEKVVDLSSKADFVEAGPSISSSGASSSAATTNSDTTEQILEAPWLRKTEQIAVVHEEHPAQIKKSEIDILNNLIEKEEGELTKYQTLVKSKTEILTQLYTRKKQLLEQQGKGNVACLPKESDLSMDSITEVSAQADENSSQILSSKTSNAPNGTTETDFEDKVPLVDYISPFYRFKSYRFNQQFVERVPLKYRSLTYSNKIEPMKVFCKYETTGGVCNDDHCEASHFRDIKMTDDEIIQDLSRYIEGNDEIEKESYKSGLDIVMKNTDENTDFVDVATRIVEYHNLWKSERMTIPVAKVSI
# [2] = biological target: T2, Red1 L481R, I485R, full length, yeast two-hybrid fusion (S. pombe) (UniProt Q9UTR8); experiment: as above
# T2 sequence: T1 sequence with R32E, L481R, I485R
# [3] = biological target: T3, Red1, full length, yeast two-hybrid fusion (S. pombe) (UniProt Q9UTR8); experiment: as above
# T3 sequence: T1 sequence with R32E
# Strep-Ars2 107-527 [4] = biological target: T4, Strep-Ars2 107-527 (S. pombe, UniProt O94326 107-527); experiment: pull-down; Strep-tag pull-down: Ni-purified Strep-Ars2 107-527 held on Strep-Tactin XT, Ni-purified His-MBP-Red1 added; 20 mM Tris pH 8, 100 mM NaCl; eluted with 50 mM D-biotin; both purified
# T4 construct: vector pETM41; source: E. coli BL21Star (DE3), purified (Ni^2+ chelating Sepharose); not shown: Strep-tag, C-terminal, kept
# T4 sequence (looked up): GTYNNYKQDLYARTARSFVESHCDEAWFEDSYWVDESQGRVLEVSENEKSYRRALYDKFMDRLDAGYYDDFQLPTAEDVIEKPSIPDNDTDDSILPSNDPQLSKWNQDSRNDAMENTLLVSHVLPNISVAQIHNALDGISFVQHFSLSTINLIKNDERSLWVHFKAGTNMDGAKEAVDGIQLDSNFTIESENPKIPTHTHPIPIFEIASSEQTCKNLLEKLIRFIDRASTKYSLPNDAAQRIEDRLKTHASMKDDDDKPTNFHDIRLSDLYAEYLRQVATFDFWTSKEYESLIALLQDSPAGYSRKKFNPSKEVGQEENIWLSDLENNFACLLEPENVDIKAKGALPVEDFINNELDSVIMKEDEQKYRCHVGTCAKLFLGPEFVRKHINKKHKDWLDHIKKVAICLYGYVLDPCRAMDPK
# [5] = biological target: T5, Strep-Ars2 107-527 F490D (S. pombe) (UniProt O94326); experiment: as above
# T5 sequence: T4 sequence (looked up) with F384D
# [6] = biological target: T6, Strep-Ars2 107-527 K483D (S. pombe) (UniProt O94326); experiment: as above
# T6 sequence: T4 sequence (looked up) with K377D
# Red1-E32R-TAP (S. pombe) = biological target: T7, Red1-E32R-TAP (S. pombe) (UniProt Q9UTR8); experiment: co-IP; soluble extracts of S. pombe grown in minimal medium; Red1-TAP held on IgG Sepharose, 2 h at 4 °C, 150 mM NaCl, 0.2% NP-40; western blot
# T7 sequence: T1 sequence
# Red1-TAP (S. pombe) = biological target: T8, Red1-TAP (S. pombe) (UniProt Q9UTR8); experiment: as above
# T8 sequence: T1 sequence with R32E
# [7] = biological target: His-MBP-Red1 452-524 L481R, I485R (S. pombe) (UniProt Q9UTR8); experiment: SEC; gel filtration of the Red1 452-524 L481R, I485R double mutant (Supplementary Fig. 12e, f); both purified
# Strep-Ars2 107-527 [8] = biological target: T4, Strep-Ars2 107-527; experiment: ITC; 25 °C, 0.4-0.8 mM Red1 injected into 30-40 µM Ars2, 20 mM Tris pH 8.0, 100 mM NaCl, one-site model; both purified
binder,measurement,setting,value
B1,binding,[1],no binding
same,binding,[2],binds
same,binding,[3],binds
B2,binding,Strep-Ars2 107-527 [4],binds
same,binding,[5],no binding
same,binding,[6],no binding
B3,binding,Red1-E32R-TAP (S. pombe),no binding
same,binding,Red1-TAP (S. pombe),binds
B4,binding,[7],no binding
"KNEEDESNDSDKRDGEISEDD (domain or fragment, UniProt Q9UTR8 20-40) [His-MBP-Red1 20-40 E32R]",binding,Strep-Ars2 107-527 [8],no binding (tested: 0.4–0.8 mM injected into 30–40 µM Ars2)
same,binding,Strep-Ars2 107-527 [4],no binding
